In US20100204090A1, “USE OF A PEPTIDE AS A THERAPEUTIC AGENT” (priority 2007, published 2010):
Bridge positions count the residues as written; N and C are the ends. Peptide text beside a SMILES is read from it.

Test system: HIV-1IIIB
Test: HIV-1 antiviral assay (CPE reduction, MTS) in CEM-SS cells
Format: cell-based
Details: peptide 10 micrograms per ml, MOI approximately 0.01, 6 days post-infection

With `CC[C@H](C)[C@@H]1NC(=O)CNC(=O)[C@H](CCCNC(=N)N)NC(=O)CNC(=O)[C@@H]2CSSC[C@H](NC1=O)C(=O)N[C@@H](CCCNC(=N)N)C(=O)N[C@H]1CSSC[C@H](NC(=O)[C@H](CCCNC(=N)N)NC(=O)[C@@H]3CSSC[C@H](NC(=O)[C@H]([C@@H](C)CC)NC1=O)C(=O)NCC(=O)N[C@@H](CCCNC(=N)N)C(=O)NCC(=O)N[C@@H]([C@@H](C)CC)C(=O)N3)C(=O)N[C@@H]([C@@H](C)CC)C(=O)N2` [Retrocyclin-1] (cyclo(GICRCICGRGICRCICGR); disulfide 3-16, 5-14, 7-12 (inferred); ring closure inferred) the “% CPE reduction in HIV-1 infected CEM-SS cells” value was 82.1%.
